Measured values: PubChem BioAssay AID1645882 (National Center for Advancing Translational Sciences (NCATS), 2021)
Hit rate of the full screen: of about 16,000 compounds, about 120 (0.75%) were called active. Another 4% or so got no clear call; they are omitted. The call rests on the fitted dose curve; in most records, active means well fitted inhibition curve with a large enough effect; inconclusive means small, poorly fitted or top-dose-only effect; inactive means no such curve, though single readings can be large or run the other way. This is one part of the list.

Biological target: Rap guanine nucleotide exchange factor 3 (Homo sapiens) (UniProt O95398)
Assay: Validation qHTS for antagonist of cAMP-regulated guanine nucleotide exchange factor 3 (EPAC1); further: nearly all actives have a fitted effect of over 75% in size
Conditions: EPAC1 Rap1B-BODIPY-GDP exchange, fluorescence; series mostly up to 150 µM; activity change, negative = inhibition: at the top concentration
How it was run: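 EPAC1 (100 nM) mixed with 250 nM RAP1B-BODIPY-GDP and 50 uM GDP; compounds in concentration series, 5 min at room temperature. Fluorescence (ex 480/em 540 nm) read every 5 min for 30 min; normalized to ATA control and DMSO.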

Chain of UniProt O95398 (O95398 whole entry, looked up): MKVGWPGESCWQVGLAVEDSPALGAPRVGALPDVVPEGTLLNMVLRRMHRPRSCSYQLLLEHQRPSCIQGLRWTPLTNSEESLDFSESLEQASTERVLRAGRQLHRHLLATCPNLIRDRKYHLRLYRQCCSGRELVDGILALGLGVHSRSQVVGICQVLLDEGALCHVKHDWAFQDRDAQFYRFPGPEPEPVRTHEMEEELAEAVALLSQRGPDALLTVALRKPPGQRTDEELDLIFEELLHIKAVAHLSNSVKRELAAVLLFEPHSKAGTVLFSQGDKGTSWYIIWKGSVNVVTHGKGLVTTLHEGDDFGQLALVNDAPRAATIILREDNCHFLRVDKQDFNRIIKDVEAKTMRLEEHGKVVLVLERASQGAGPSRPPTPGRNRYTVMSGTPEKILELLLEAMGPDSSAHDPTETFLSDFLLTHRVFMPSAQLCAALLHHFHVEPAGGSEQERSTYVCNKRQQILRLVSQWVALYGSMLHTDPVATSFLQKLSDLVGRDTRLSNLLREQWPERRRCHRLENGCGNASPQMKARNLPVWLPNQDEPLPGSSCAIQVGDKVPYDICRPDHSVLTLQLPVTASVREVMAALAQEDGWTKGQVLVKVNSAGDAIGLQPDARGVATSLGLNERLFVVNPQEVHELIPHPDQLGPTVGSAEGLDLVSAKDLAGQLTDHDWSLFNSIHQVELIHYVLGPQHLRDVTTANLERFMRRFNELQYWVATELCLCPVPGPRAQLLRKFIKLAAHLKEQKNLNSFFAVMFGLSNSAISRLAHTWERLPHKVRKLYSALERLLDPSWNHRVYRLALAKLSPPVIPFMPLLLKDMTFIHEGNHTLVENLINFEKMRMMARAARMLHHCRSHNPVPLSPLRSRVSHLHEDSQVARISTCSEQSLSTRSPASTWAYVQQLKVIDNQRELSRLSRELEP

Activity change, negative = inhibition, inactive:
COCCn1c(=O)c(-c2ccccc2)nc2cnc(Oc3ccc(OC)cc3)nc21 4.11%
c1csc(CNc2ncncc2-c2ccc3c(c2)OCO3)c1 24.5%
O=C(CCCCCCCCCCCCC1CCCC1)Nc1ccc(S(=O)(=O)c2ccc(NC(=O)CCCCCCCCCCCCC3CCCC3)cc2)cc1 15.3%
Nc1nc2ccc([N+](=O)[O-])cc2s1 33.4% [at 320 µM]
C=O 8.64%
COc1cc(C[C@H]2C(=O)OC[C@@H]2Cc2ccc(OC)c(OC)c2)ccc1O -7.14%
O=C(c1csnn1)N1CCC2(CCN(Cc3cc(C(F)(F)F)cc(C(F)(F)F)c3)CC2)CC1 -6.7%
O=c1c(-c2ccccc2)nc2cnc(N3CCOCC3)nc2n1Cc1ccc(F)cc1 20.3%
CCNc1ncc2nc(-c3ccc(OC)cc3)c(=O)n(Cc3cccc(OC)c3)c2n1 16.2%
NS(=O)(=O)c1cc2c(cc1C(F)(F)F)NC(Cc1ccccc1)NS2(=O)=O (configuration not stated)
O[C@@H](c1cc(C(F)(F)F)nc2c(C(F)(F)F)cccc12)[C@H]1CCCCN1 -6.35%
C(=C\c1ccccn1)/c1ccccc1 5.74%
COc1ccc(CCNc2ncnc3sc(C(=O)N4CCCCC4)c(C)c23)cc1OC -10.5%
COc1ccc(-c2nc3cnc(OC)nc3n(-c3ccc(OC)cc3)c2=O)cc1 2.15%
CNC(=O)c1ccccc1Sc1ccc2c(/C=C/c3ccccn3)n[nH]c2c1 12.5%
O=S1(=O)CCOC[C@H](c2ccccc2)N1Cc1ccc(F)cc1 -5.02%
O=C(Nc1cccc(F)c1)N1CC[C@@]2(CCCN(C(=O)c3cccc(F)c3)C2)C1 20.6%
CC(CN1c2ccccc2Sc2ccccc21)N(C)C (configuration not stated)
CCC(COC)NC(=O)c1cnn(-c2ncc3c(n2)-c2ccccc2CC3)c1C (configuration not stated) 15.6%
COc1ccc(CNc2cc(-c3ccccc3CN(C)C)ncn2)c(OC)c1 -12.4%
CN(C)c1nc2c(Br)c(Br)c(Br)c(Br)c2[nH]1 2.14% [at 75.8 µM]
CCC1CN(Cc2cn[nH]c2-c2ccccc2)Cc2cc(OC)ccc2O1 (configuration not stated) -12.9%
O=C(c1ccco1)N1CCC2(CC1)CN(c1cccc(-c3ccccc3)c1)C2 -3.37%
COc1ccc(C(=O)Oc2ccc3c(-c4ccc(OC)cc4)cc(=O)oc3c2)cc1 5.38%
COC(=O)C1CCCCN1Cc1nc(N(C)C)c2ccccc2n1 (configuration not stated) -12.6%
CC(C)[C@H](CO)Nc1nc(Nc2cc(N)cc(Cl)c2)c2ncn(C(C)C)c2n1 -13%
COc1cc2c(c(OC)c1OC)-c1ccc(OC)c(=O)cc1[C@@H](NC(C)=O)CC2
CN(CCO)C(=O)c1cn(C2CCN(Cc3cccc4ccccc34)CC2)nn1 12.2%
O=C(c1ccc(OCCN2CCCCC2)cc1)c1c(-c2ccc(O)cc2)sc2cc(O)ccc12
O=C1c2ccccc2-c2n[nH]c3cccc1c23
COc1cccc(-c2nccc(-n3ccnc3)n2)c1 -0.507%
CCC(/C=C/C(C)C1CCC2C3CCC4=CC(=O)CC[C@@]4(C)C3CC[C@@]12C)C(C)C (some centres not stated) -17.8%
COc1cc(-c2ccc(Cl)cn2)cc2c1OCCN(C(=O)c1ccccc1-n1cccn1)C2 11.5%
COCCn1c(=O)c(-c2ccc(F)cc2)nc2cnc(N(C)C)nc21 14.2%
CN1CCC(=O)N(CCSc2ccccc2)CC1 15.6%
COc1ccc(-n2c(=O)c(C)nc3cnc(Oc4cccc(Cl)c4)nc32)cc1 -4.98%
CC(O)CN(C)C (configuration not stated) 17.5%
COc1ccccc1CN1CCCC(n2cc(C(=O)N3CCCC3)nn2)C1 (configuration not stated) 7.64%
N#Cc1cccc(-c2nc(NCc3cccnc3)c3ccccc3n2)c1 5.07%
COC(=O)C1=CO[C@@H](O[C@H]2OC(CO)C(O)C(O)C2O)C2C1CC(O)C2C (some centres not stated) 21.5%
CS(=O)(=O)N1CCC[C@@]2(CCN(Cc3ccc(C#N)cc3)C2)C1 24%
COc1ccc(CNc2ncncc2-c2ccccc2Cl)c(OC)c1 -24.8%
O[Si](CCCN1CCCCC1)(c1ccc(F)cc1)C1CCCCC1 (configuration not stated) 8.98% [at 75.8 µM]
c1ccc(N2CCN(CCCOc3ccc4c(c3)OCO4)CC2)cc1
O=C(C1CCCCC1)N(CCN1CCN(c2ccccc2CO)CC1)c1ccccn1 5.35%
Cc1cc2c(cc1C)NC1(C[C@H]3CCC(=O)N4CC[C@@H](C1)[C@@H]34)C(=NC(C)(C)CC(C)(C)C)N2 (some centres not stated) -27.7%
CC(C)C[C@@H](CO)N1CCN(CC(C)C)CCC1=O
CC1CN(CCC(=O)N2CCCC(C(=O)c3nccn3C)C2)Cc2cc(Cl)ccc2O1 (configuration not stated) 17%
Fc1ccc(Nc2nc(-c3ccoc3)nc3ccccc23)cc1 17.3%
O=c1cc(-c2cc3ccccc3oc2=O)c2ccc(O)cc2o1 9.67%
CNc1nc(-c2ccccc2CN(C)C)nc2ccccc12 19%
FC(F)(F)c1ccccc1-c1nc(NCc2cccs2)c2ccccc2n1 -17.8%
